4 molecules from the supplement of paper PMC12423691 can be followed below.

The labels stand for the following.
B1: AEBP1, Q8IUX7 (protein)
chain: MAAVRGAPLLSCLLALLALCPGGRPQTVLTDDEIEEFLEGFLSELEPEPREDDVEAPPPPEPTPRVRKAQAGGKPGKRPGTAAEVPPEKTKDKGKKGKKDKGPKVPKESLEGSPRPPKKGKEKPPKATKKPKEKPPKATKKPKEKPPKATKKPKEKPPKATKKPPSGKRPPILAPSETLEWPLPPPPSPGPEELPQEGGAPLSNNWQNPGEETHVEAREHQPEPEEETEQPTLDYNDQIEREDYEDFEYIRRQKQPRPPPSRRRRPERVWPEPPEEKAPAPAPEERIEPPVKPLLPPLPPDYGDGYVIPNYDDMDYYFGPPPPQKPDAERQTDEEKEELKKPKKEDSSPKEETDKWAVEKGKDHKEPRKGEELEEEWTPTEKVKCPPIGMESHRIEDNQIRASSMLRHGLGAQRGRLNMQTGATEDDYYDGAWCAEDDARTQWIEVDTRRTTRFTGVITQGRDSSIHDDFVTTFFVGFSNDSQTWVMYTNGYEEMTFHGNVDKDTPVLSELPEPVVARFIRIYPLTWNGSLCMRLEVLGCSVAPVYSYYAQNEVVATDDLDFRHHSYKDMRQLMKVVNEECPTITRTYSLGKSSRGLKIYAMEISDNPGEHELGEPEFRYTAGIHGNEVLGRELLLLLMQYLCREYRDGNPRVRSLVQDTRIHLVPSLNPDGYEVAAQMGSEFGNWALGLWTEEGFDIFEDFPDLNSVLWGAEERKWVPYRVPNNNLPIPERYLSPDATVSTEVRAIIAWMEKNPFVLGANLNGGERLVSYPYDMARTPTQEQLLAAAMAAARGEDEDEVSEAQETPDHAIFRWLAISFASAHLTLTEPYRGGCQAQDYTGGMGIVNGAKWNPRTGTINDFSYLHTNCLELSFYLGCDKFPHESELPREWENNKEALLTFMEQVHRGIKGVVTDEQGIPIANATISVSGINHGVKTASGGDYWRILNPGEYRVTAHAEGYTPSAKTCNVDYDIGATQCNFILARSNWKRIREIMAMNGNRPIPHIDPSRPMTPQQRRLQQRRLQHRLRLRAQMRLRRLNATTTLGPHTVPPTLPPAPATTLSTTIEPWGLIPPTTAGWEESETETYTEVVTEFGTEVEPEFGTKVEPEFETQLEPEFETQLEPEFEEEEEEEKEEEIATGQAFPFTTVETYTVNFGDF
B2: NOD1, Q9Y239 (protein)
chain: MEEQGHSEMEIIPSESHPHIQLLKSNRELLVTHIRNTQCLVDNLLKNDYFSAEDAEIVCACPTQPDKVRKILDLVQSKGEEVSEFFLYLLQQLADAYVDLRPWLLEIGFSPSLLTQSKVVVNTDPVSRYTQQLRHHLGRDSKFVLCYAQKEELLLEEIYMDTIMELVGFSNESLGSLNSLACLLDHTTGILNEQGETIFILGDAGVGKSMLLQRLQSLWATGRLDAGVKFFFHFRCRMFSCFKESDRLCLQDLLFKHYCYPERDPEEVFAFLLRFPHVALFTFDGLDELHSDLDLSRVPDSSCPWEPAHPLVLLANLLSGKLLKGASKLLTARTGIEVPRQFLRKKVLLRGFSPSHLRAYARRMFPERALQDRLLSQLEANPNLCSLCSVPLFCWIIFRCFQHFRAAFEGSPQLPDCTMTLTDVFLLVTEVHLNRMQPSSLVQRNTRSPVETLHAGRDTLCSLGQVAHRGMEKSLFVFTQEEVQASGLQERDMQLGFLRALPELGPGGDQQSYEFFHLTLQAFFTAFFLVLDDRVGTQELLRFFQEWMPPAGAATTSCYPPFLPFQCLQGSGPAREDLFKNKDHFQFTNLFLCGLLSKAKQKLLRHLVPAAALRRKRKALWAHLFSSLRGYLKSLPRVQVESFNQVQAMPTFIWMLRCIYETQSQKVGQLAARGICANYLKLTYCNACSADCSALSFVLHHFPKRLALDLDNNNLNDYGVRELQPCFSRLTVLRLSVNQITDGGVKVLSEELTKYKIVTYLGLYNNQITDVGARYVTKILDECKGLTHLKLGKNKITSEGGKYLALAVKNSKSISEVGMWGNQVGDEGAKAFAEALRNHPSLTTLSLASNGISTEGGKSLARALQQNTSLEILWLTQNELNDEVAESLAEMLKVNQTLKHLWLIQNQITAKGTAQLADALQSNTGITEICLNGNLIKPEEAKVYEDEKRIICF
B3: TRAF3, Q13114 (protein)
chain: MESSKKMDSPGALQTNPPLKLHTDRSAGTPVFVPEQGGYKEKFVKTVEDKYKCEKCHLVLCSPKQTECGHRFCESCMAALLSSSSPKCTACQESIVKDKVFKDNCCKREILALQIYCRNESRGCAEQLMLGHLLVHLKNDCHFEELPCVRPDCKEKVLRKDLRDHVEKACKYREATCSHCKSQVPMIALQKHEDTDCPCVVVSCPHKCSVQTLLRSELSAHLSECVNAPSTCSFKRYGCVFQGTNQQIKAHEASSAVQHVNLLKEWSNSLEKKVSLLQNESVEKNKSIQSLHNQICSFEIEIERQKEMLRNNESKILHLQRVIDSQAEKLKELDKEIRPFRQNWEEADSMKSSVESLQNRVTELESVDKSAGQVARNTGLLESQLSRHDQMLSVHDIRLADMDLRFQVLETASYNGVLIWKIRDYKRRKQEAVMGKTLSLYSQPFYTGYFGYKMCARVYLNGDGMGKGTHLSLFFVIMRGEYDALLPWPFKQKVTLMLMDQGSSRRHLGDAFKPDPNSSSFKKPTGEMNIASGCPVFVAQTVLENGTYIKDDTIFIKVIVDTSDLPDP
B4: TRIM37, O94972 (protein)
chain: MDEQSVESIAEVFRCFICMEKLRDARLCPHCSKLCCFSCIRRWLTEQRAQCPHCRAPLQLRELVNCRWAEEVTQQLDTLQLCSLTKHEENEKDKCENHHEKLSVFCWTCKKCICHQCALWGGMHGGHTFKPLAEIYEQHVTKVNEEVAKLRRRLMELISLVQEVERNVEAVRNAKDERVREIRNAVEMMIARLDTQLKNKLITLMGQKTSLTQETELLESLLQEVEHQLRSCSKSELISKSSEILMMFQQVHRKPMASFVTTPVPPDFTSELVPSYDSATFVLENFSTLRQRADPVYSPPLQVSGLCWRLKVYPDGNGVVRGYYLSVFLELSAGLPETSKYEYRVEMVHQSCNDPTKNIIREFASDFEVGECWGYNRFFRLDLLANEGYLNPQNDTVILRFQVRSPTFFQKSRDQHWYITQLEAAQTSYIQQINNLKERLTIELSRTQKSRDLSPPDNHLSPQNDDALETRAKKSACSDMLLEGGPTTASVREAKEDEEDEEKIQNEDYHHELSDGDLDLDLVYEDEVNQLDGSSSSASSTATSNTEENDIDEETMSGENDVEYNNMELEEGELMEDAAAAGPAGSSHGYVGSSSRISRRTHLCSAATSSLLDIDPLILIHLLDLKDRSSIENLWGLQPRPPASLLQPTASYSRKDKDQRKQQAMWRVPSDLKMLKRLKTQMAEVRCMKTDVKNTLSEIKSSSAASGDMQTSLFSADQAALAACGTENSGRLQDLGMELLAKSSVANCYIRNSTNKKSNSPKPARSSVAGSLSLRRAVDPGENSRSKGDCQTLSEGSPGSSQSGSRHSSPRALIHGSIGDILPKTEDRQCKALDSDAVVVAVFSGLPAVEKRRKMVTLGANAKGGHLEGLQMTDLENNSETGELQPVLPEGASAAPEEGMSSDSDIECDTENEEQEEHTSVGGFHDSFMVMTQPPDEDTHSSFPDGEQIGPEDLSFNTDENSGR

The list shows a part of the results. Binding of human transcription factors and regulators to the viral nucleoprotein by AlphaScreen, crude cell-free proteins, amounts not normalised, one pass. Fold of the Venus control; higher = more signal. No active / inactive call. Single-pass screen; sequences are the whole Swiss-Prot entries looked up by name.

For the test, the target named is nucleoprotein N of Crimean-Congo hemorrhagic fever virus. Briefly: AlphaScreen luminescence signal relative to Venus negative control (fold); higher = stronger binding to CCHFV N. As to the method: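 AlphaScreen binding of cell-free made, FLAG-GST-tagged human transcription factors and regulators (crude translation products) to biotinylated N protein; signal as fold of the FLAG-GST-Venus control. One pass.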
(Alpha assays give light when donor and acceptor beads are brought close together.)
B1 returned an AlphaScreen luminescence signal of 4.93.

In turn, B2 gave an AlphaScreen luminescence signal of 2.33. The value for B3 was 1.86.

For B4, the AlphaScreen luminescence signal is 1.44.
